# According to the BET-seq Pho4 binding data (Le et al. 2018):
# The list shows a part of the results. These are noisy estimates, calculated here from bound and input reads.
# Molecular target: T1, Pho4 (S. cerevisiae) (UniProt P07270)
# T1 sequence: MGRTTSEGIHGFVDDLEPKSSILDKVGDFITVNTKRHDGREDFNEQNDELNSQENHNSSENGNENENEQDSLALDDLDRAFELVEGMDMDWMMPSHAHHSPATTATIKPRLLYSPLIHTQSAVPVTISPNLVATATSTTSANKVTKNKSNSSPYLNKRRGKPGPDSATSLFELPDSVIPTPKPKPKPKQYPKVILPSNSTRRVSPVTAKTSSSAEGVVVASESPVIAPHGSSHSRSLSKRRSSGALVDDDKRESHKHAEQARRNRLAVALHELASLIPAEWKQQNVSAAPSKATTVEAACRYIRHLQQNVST
# Test: relative binding free energy (BET-seq); higher = weaker binding
# Details: reference: library average
row,Sequence,relative binding free energy
1,TCGTTCACGTGTAGTG,0.25 kcal/mol
2,AGTGGCACGTGCCTGG,-0.22 kcal/mol
3,TATGTCACGTGTTCAT,0.05 kcal/mol
4,TTCATCACGTGGATGG,0.1 kcal/mol
5,TTATACACGTGTTTTA,-0.04 kcal/mol
6,ATGGACACGTGATATT,0.06 kcal/mol
7,ATCTTCACGTGGGGAA,0.1 kcal/mol
8,TCGTTCACGTGTGGCG,0.12 kcal/mol
9,AGGATCACGTGGGATA,0.15 kcal/mol
10,CTGTTCACGTGAGGCG,0.33 kcal/mol
11,GGGAGCACGTGGTAGT,-0.09 kcal/mol
12,GGTTTCACGTGTGCAG,0.15 kcal/mol
13,GTAGTCACGTGGAGGA,0.09 kcal/mol
14,CTTTGCACGTGTGTTG,-0.01 kcal/mol
15,TAGGCCACGTGTTGAA,0.06 kcal/mol
16,GTATTCACGTGAAAGT,0.26 kcal/mol
17,TGGTGCACGTGAGGTG,0.24 kcal/mol
18,TACATCACGTGGGAGG,0.05 kcal/mol
19,TGTTGCACGTGGGCTT,-0.04 kcal/mol
20,TCGAACACGTGAGGGT,0.27 kcal/mol
21,ATCGTCACGTGTAGTT,0.19 kcal/mol
22,GGTACCACGTGTGGTT,0 kcal/mol
23,TTATGCACGTGCAAGG,0.02 kcal/mol
24,AGCTGCACGTGTCTGG,0.13 kcal/mol
25,AGAAACACGTGTTTTT,0.01 kcal/mol
26,GTAGACACGTGGTAAG,0.04 kcal/mol

row,Sequence,relative binding free energy
1,CAGTTCACGTGATGTA,0.3 kcal/mol
2,GGTCTCACGTGGGGGA,0.15 kcal/mol
3,GTTGCCACGTGGGTGT,-0.22 kcal/mol
4,TATGTCACGTGAATCT,0.54 kcal/mol
5,GTTTGCACGTGGTTCA,0.06 kcal/mol
6,GTGCTCACGTGTGTCG,0.31 kcal/mol
7,TGGACCACGTGGGGTT,-0.21 kcal/mol
8,TAGCACACGTGATGGT,0.05 kcal/mol
9,TGAGGCACGTGCGCGT,-0.23 kcal/mol
10,TAAGTCACGTGTGCTG,0.06 kcal/mol
11,TGTTCCACGTGTTCTG,-0.01 kcal/mol
12,GGGTACACGTGTTGAG,0.21 kcal/mol
13,AAGTTCACGTGAATAT,0.36 kcal/mol
14,TTATGCACGTGTCTTA,-0.15 kcal/mol
15,TGTCGCACGTGTTTGA,-0.15 kcal/mol
16,TGAGGCACGTGGTACG,-0.23 kcal/mol
17,GTGTACACGTGGTGCT,0.04 kcal/mol
18,AATTTCACGTGAGCAT,0.49 kcal/mol
19,CATTGCACGTGGGTAG,-0.31 kcal/mol
20,TACGACACGTGTTTGG,0.11 kcal/mol
21,TTATCCACGTGGTATT,-0.11 kcal/mol
22,CTTTTCACGTGGGTAA,0.04 kcal/mol
23,GGGGGCACGTGTAATG,0.04 kcal/mol
24,GTGCCCACGTGATGTG,0.21 kcal/mol
25,AGTGTCACGTGCTTGA,-0.01 kcal/mol
26,TGGCTCACGTGAACGG,0.31 kcal/mol

row,Sequence,relative binding free energy
1,TAAGCCACGTGGGGTC,-0.16 kcal/mol
2,TTATACACGTGTTCAG,0.05 kcal/mol
3,TGGTACACGTGCCTGG,-0.09 kcal/mol
4,TGATTCACGTGTAGTT,0.43 kcal/mol
5,TGCACCACGTGGGTGT,-0.3 kcal/mol
6,TGTAGCACGTGGCAAT,-0.23 kcal/mol
7,TTGTCCACGTGTGGTG,-0.04 kcal/mol
8,TACGGCACGTGAGAGG,0.05 kcal/mol
9,ATAGGCACGTGGTCTT,-0.14 kcal/mol
10,GCATTCACGTGTGTCT,0.42 kcal/mol
11,TTCGGCACGTGTTGTT,-0.05 kcal/mol
12,TTGGCCACGTGTTATA,-0.04 kcal/mol
13,GTGGCCACGTGTGATG,0 kcal/mol
14,GGGTGCACGTGCTTTT,0.03 kcal/mol
15,TACGTCACGTGGGGCT,-0.16 kcal/mol
16,GAGGGCACGTGTTGAA,-0.03 kcal/mol
17,TGTTCCACGTGAGGAG,0.18 kcal/mol
18,CGGGGCACGTGTGGAC,0.03 kcal/mol
19,GTTTACACGTGTTAAT,0.11 kcal/mol
20,TAAGACACGTGTAATT,0.21 kcal/mol
21,GGCTGCACGTGGCATG,-0.09 kcal/mol
22,GTTTGCACGTGGTGTC,-0.01 kcal/mol
23,TAGTTCACGTGATGAC,0.36 kcal/mol
24,TCTGTCACGTGTGGGT,0.12 kcal/mol
25,TGGTCCACGTGGGAAA,-0.03 kcal/mol
26,GGATACACGTGGGAGT,-0.09 kcal/mol

row,Sequence,relative binding free energy
1,GTTGACACGTGTGACG,0.18 kcal/mol
2,AGGTGCACGTGCGGTT,-0.06 kcal/mol
3,GTGTTCACGTGGGTTT,0.23 kcal/mol
4,CGAGTCACGTGAGGTG,0.35 kcal/mol
5,CGCGGCACGTGTTGTA,-0.11 kcal/mol
6,GATGTCACGTGTGTAT,0.17 kcal/mol
7,TGCGACACGTGGGGTG,-0.16 kcal/mol
8,CCTGTCACGTGGGCTG,0.05 kcal/mol
9,GAGGGCACGTGTGATA,-0.05 kcal/mol
10,GTGCGCACGTGACGGG,0.12 kcal/mol
11,TATTACACGTGGGAAG,-0.03 kcal/mol
12,GGAGTCACGTGATTTG,0.44 kcal/mol
13,GTTATCACGTGAGGTA,0.37 kcal/mol
14,TAGACCACGTGGGGAG,-0.11 kcal/mol
15,TGCGTCACGTGTTGGG,0.09 kcal/mol
16,GGTGGCACGTGATTTT,0.25 kcal/mol
17,TCGTGCACGTGTGTTC,0.05 kcal/mol
18,GGAAACACGTGATTGT,0.08 kcal/mol
19,TGTTCCACGTGCGGTT,0.04 kcal/mol
20,ATATGCACGTGGGTCT,-0.2 kcal/mol
21,ATGTGCACGTGCTCGT,-0.2 kcal/mol
22,GGGTACACGTGGGTTA,-0.01 kcal/mol
23,ATGGGCACGTGATTAT,0.12 kcal/mol
24,TGTGCCACGTGATTGA,0.07 kcal/mol
25,TCGTGCACGTGCTGTA,-0.03 kcal/mol
26,CTGGTCACGTGCGTTT,0.04 kcal/mol

row,Sequence,relative binding free energy
1,TAGGGCACGTGCAAGG,-0.16 kcal/mol
2,ATACTCACGTGTTTTT,0.13 kcal/mol
3,ATTTACACGTGCATGG,0.17 kcal/mol
4,TTAACCACGTGGTGGG,-0.1 kcal/mol
5,TGGTGCACGTGCCCGG,-0.23 kcal/mol
6,GTTGACACGTGGAACG,0.14 kcal/mol
7,CGTGACACGTGTTGGA,-0.04 kcal/mol
8,CTTTCCACGTGTTGGT,0.11 kcal/mol
9,TTGTCCACGTGAGGTT,0.19 kcal/mol
10,TTGTGCACGTGTTGCA,0.05 kcal/mol
11,AATGACACGTGAAGTG,0.3 kcal/mol
12,TAGGTCACGTGTCGGT,0.11 kcal/mol
13,TAGTTCACGTGAAATT,0.45 kcal/mol
14,CAAGTCACGTGTTAGG,0.19 kcal/mol
15,TCATGCACGTGAATTG,0.33 kcal/mol
16,GTGAACACGTGGGCGG,-0.16 kcal/mol
17,TTATTCACGTGCAAGG,0.35 kcal/mol
18,TGATGCACGTGGATGC,-0.1 kcal/mol
19,TGTGTCACGTGTGATG,0.16 kcal/mol
20,AGTGCCACGTGTTATT,-0.14 kcal/mol
21,GTCTACACGTGGGTAT,0.02 kcal/mol
22,GTATGCACGTGGTGGA,-0.05 kcal/mol
23,ATAGCCACGTGGGTAG,-0.27 kcal/mol
24,CGGGGCACGTGGCAGC,-0.14 kcal/mol
25,GGGCACACGTGAACGG,0.32 kcal/mol
26,GAAGACACGTGGCGTG,-0.05 kcal/mol

row,Sequence,relative binding free energy
1,TTTTACACGTGGATCG,0.22 kcal/mol
2,AGGGGCACGTGGACTA,-0.12 kcal/mol
3,AATTTCACGTGGTGGA,0.2 kcal/mol
4,GTGGACACGTGTTGAC,0.07 kcal/mol
5,TGTAACACGTGCGTGA,0.02 kcal/mol
6,GGGTACACGTGTAGTA,0.22 kcal/mol
7,AGTCGCACGTGCGTTT,0.03 kcal/mol
8,GTGTGCACGTGCGTCT,-0.01 kcal/mol
9,TAGTTCACGTGTAGTG,0.11 kcal/mol
10,CTGTTCACGTGTGCTG,0.17 kcal/mol
11,ATTTGCACGTGTTCTA,-0.17 kcal/mol
12,GTGGGCACGTGGGCAT,-0.14 kcal/mol
13,CGTGGCACGTGAGATT,0.18 kcal/mol
14,TGGGTCACGTGGACGG,0.03 kcal/mol
15,CGTTTCACGTGGTATG,0.23 kcal/mol
16,AGATTCACGTGACTGT,0.33 kcal/mol
17,TGTAGCACGTGGAATA,-0.04 kcal/mol
18,CCTTTCACGTGGGTTG,0.19 kcal/mol
19,TCATACACGTGTGTGT,-0.2 kcal/mol
20,GCATTCACGTGGATGG,0.27 kcal/mol
21,CGGAACACGTGGCGGT,0.05 kcal/mol
22,TGACACACGTGGTTGT,-0.08 kcal/mol
23,TAATGCACGTGTTGGC,0.07 kcal/mol
24,GGTATCACGTGGCTAT,0.13 kcal/mol
25,CAGGACACGTGGAGTG,0.02 kcal/mol
26,ATCGGCACGTGTTTAA,-0.02 kcal/mol

row,Sequence,relative binding free energy
1,TAGATCACGTGGTGTT,0.05 kcal/mol
2,AGGATCACGTGAGGTA,0.22 kcal/mol
3,GGCGACACGTGGGCGG,-0.02 kcal/mol
4,TACAGCACGTGGGGGA,-0.19 kcal/mol
5,AAAACCACGTGTTGGG,0.19 kcal/mol
6,TGGAACACGTGGGTAG,-0.08 kcal/mol
7,CGCGTCACGTGTCTGG,0.17 kcal/mol
8,TGGGGCACGTGGACTG,-0.14 kcal/mol
9,TTTTTCACGTGCGAGA,0.34 kcal/mol
10,CGGCGCACGTGTGGGA,-0.21 kcal/mol
11,ATTATCACGTGGTATA,-0.08 kcal/mol
12,GGGTCCACGTGGGGCG,-0.08 kcal/mol
13,TTTGGCACGTGCGGGG,-0.09 kcal/mol
14,GGGTGCACGTGTGTCC,0.02 kcal/mol
15,GCCAGCACGTGGGGTG,-0.39 kcal/mol
16,GGCTTCACGTGGTGGT,0.31 kcal/mol
17,ATTGTCACGTGTGTGT,0.07 kcal/mol
18,TTGTACACGTGAGGTT,0.14 kcal/mol
19,TCTATCACGTGAAGGG,0.47 kcal/mol
20,ATATGCACGTGGTTAT,-0.15 kcal/mol
21,TGAAGCACGTGAGATA,0.31 kcal/mol
22,GGCGTCACGTGTATGA,0.1 kcal/mol
23,AGTGACACGTGAGTAA,0.35 kcal/mol
24,TGTCTCACGTGTGTAG,0.16 kcal/mol
25,CTAGGCACGTGATTGG,0.03 kcal/mol
26,TTGCTCACGTGATGTA,0.26 kcal/mol

row,Sequence,relative binding free energy
1,GTTGGCACGTGGATTA,0.05 kcal/mol
2,AGTCTCACGTGGTCTT,0.19 kcal/mol
3,TAGGTCACGTGGATAC,0.18 kcal/mol
4,TGTTGCACGTGTTTGC,-0.07 kcal/mol
5,GGGCGCACGTGGTTCT,-0.02 kcal/mol
6,TAGTCCACGTGTAAGG,0.13 kcal/mol
7,GGTCTCACGTGGTGCT,0.26 kcal/mol
8,TTCGGCACGTGGATGT,0.01 kcal/mol
9,GGTGTCACGTGAGATT,0.28 kcal/mol
10,TCTTTCACGTGATGAG,0.49 kcal/mol
11,GTATGCACGTGGTCAT,-0.24 kcal/mol
12,ATGATCACGTGGGGGG,0.14 kcal/mol
13,AGGTTCACGTGCTGAG,0.29 kcal/mol
14,TCTCACACGTGGGGGG,-0.01 kcal/mol
15,TTACGCACGTGGATTG,-0.08 kcal/mol
16,AGTTGCACGTGGGGAG,-0.02 kcal/mol
17,GCGGACACGTGTCGGG,0.08 kcal/mol
18,AGCGGCACGTGAATGG,0.23 kcal/mol
19,TTTAACACGTGTTGCT,0.02 kcal/mol
20,TGGTGCACGTGGGCAC,-0.23 kcal/mol
21,TGTTGCACGTGTCTCT,0 kcal/mol
22,ATGGGCACGTGTATTA,-0.04 kcal/mol
23,GTGGTCACGTGTGCAT,0.14 kcal/mol
24,TCATGCACGTGGTTTG,-0.16 kcal/mol
25,ACTTTCACGTGTAGTT,0.19 kcal/mol
26,AGAATCACGTGATGGT,0.17 kcal/mol

row,Sequence,relative binding free energy
1,TAGGACACGTGTAGAG,0.08 kcal/mol
2,TAAGTCACGTGTGTTT,0.15 kcal/mol
3,ATGTTCACGTGAATTC,0.44 kcal/mol
4,GCGGGCACGTGTGGTT,0.01 kcal/mol
5,GTGTTCACGTGATTCT,0.38 kcal/mol
6,GTGTCCACGTGTTATT,0.06 kcal/mol
7,TAATGCACGTGTGTGG,-0.08 kcal/mol
8,AATATCACGTGCTGTT,0.12 kcal/mol
9,AGAATCACGTGAGATT,0.45 kcal/mol
10,TGAATCACGTGTTTAA,0.16 kcal/mol
11,GGTTGCACGTGCTGTG,0.06 kcal/mol
12,TGTGACACGTGATAGT,0.29 kcal/mol
13,TGGTACACGTGGTGTA,-0.07 kcal/mol
14,TGGTGCACGTGTACCG,-0.04 kcal/mol
15,AATGGCACGTGAGCGG,0.17 kcal/mol
16,TGTTGCACGTGCTAGC,0 kcal/mol
17,ATGTACACGTGGTCTG,-0.15 kcal/mol
18,TGGTACACGTGGGGAG,-0.11 kcal/mol
19,TGAGACACGTGTGAGG,0 kcal/mol
20,AAAGGCACGTGGAAGG,-0.1 kcal/mol
21,TTTGACACGTGAAGAT,0.23 kcal/mol
22,ATATGCACGTGGGCTT,-0.22 kcal/mol
